{"source": "the RNAGym collection of RNA variant scans (doi:10.7554/elife.90254)", "parents": {"B1": {"name": "LINE1-mini (parent)", "chain": "GGCAGAGCUCAACACAGCGUGGCAAAGUGGCUGUGGCUAGACUGCC"}}, "note": "Read counts are not given, so values of variants with three or more changes are uncertain."}
{"variants_of": "B1", "test": "self-cleavage, relative activity (ratio to wild type); higher = more cleavage; in vitro, sequencing; the parent is a self-cleaving ribozyme"}
{"variant": "U20C G21C A24C U28C G36A", "self-cleavage": 0.08}
{"variant": "C18U A25C U43C", "self-cleavage": 0.1}
{"variant": "G19U U20A A41C", "self-cleavage": 0.02}
{"variant": "G19A A25G U32A", "self-cleavage": 0.06}
{"variant": "G19A A26C C31U C45U", "self-cleavage": 1.34}
{"variant": "G19A G27C C31A", "self-cleavage": 0.78}
{"variant": "G19A G29A C46U", "self-cleavage": 2.43}
{"variant": "G19U C23U U38C", "self-cleavage": 0.67}
{"variant": "C18U G22A A24G G40C C42G", "self-cleavage": 0.02}
{"variant": "U20A G22U A26U", "self-cleavage": 0.55}
{"variant": "G19U A25U U28A", "self-cleavage": 0.37}
{"variant": "G19C U20A G35A C42A", "self-cleavage": 0.01}
{"variant": "C18U C31A U43A G44U", "self-cleavage": 0.03}
{"variant": "C18G U28G G44C C45G", "self-cleavage": 0.04}
{"variant": "G19C G29U C31U", "self-cleavage": 0.1}
{"variant": "C18U G35U U38C G40C", "self-cleavage": 0.01}
{"variant": "G19U C31U C42A G44U", "self-cleavage": 0.02}
{"variant": "C18G U28G G44C", "self-cleavage": 0.3}
{"variant": "U20A U28A G29C", "self-cleavage": 0.21}
{"variant": "C18U G36U C46U", "self-cleavage": 0.06}
{"variant": "G19U A25C C45U", "self-cleavage": 0.24}
{"variant": "G19A A25C G35U", "self-cleavage": 0.02}
{"variant": "C18G G19C G30A U43G", "self-cleavage": 0}
{"variant": "G19A A25U C45G", "self-cleavage": 0.1}
{"variant": "C18U C37A G44U", "self-cleavage": 0.12}
{"variant": "U20A G22A C23U C46G", "self-cleavage": 0.21}
{"variant": "C18G G27U U34A G36U", "self-cleavage": 0.03}
{"variant": "C18G U20G G27A C31G", "self-cleavage": 0.02}
{"variant": "G19C G27C G30C", "self-cleavage": 0.46}
{"variant": "C18G U32G C37G A41G C45U", "self-cleavage": 0.03}
{"variant": "C18U A24G G29A", "self-cleavage": 2.98}
{"variant": "G19C U20A U32C C37A G40A C45U", "self-cleavage": 0.15}
{"variant": "G19C G21U G27C G35C", "self-cleavage": 0.33}
{"variant": "G19C A25C G29C", "self-cleavage": 0.18}
{"variant": "G19U A24U U28A", "self-cleavage": 0.53}
{"variant": "C18G G30A U34C", "self-cleavage": 0.02}
{"variant": "C18U G21C C37A", "self-cleavage": 0.03}
{"variant": "C18G G40U C45A", "self-cleavage": 0.06}
{"variant": "C18G G19U U32C G44C", "self-cleavage": 0.01}
{"variant": "C18G G27A C42G C46U", "self-cleavage": 0.01}
{"variant": "G19U C23A G36A C46A", "self-cleavage": 0.03}
{"variant": "U20A G35U G36U", "self-cleavage": 0.05}
{"variant": "G19C A39U G44A", "self-cleavage": 0.06}
{"variant": "G19U G30A C31G", "self-cleavage": 0.14}
{"variant": "C18U U28G U34G", "self-cleavage": 0.05}
{"variant": "G19A G29A U38G", "self-cleavage": 0.02}
{"variant": "G19A C31U G40U", "self-cleavage": 0.05}
{"variant": "C18G G22A G30C C37U", "self-cleavage": 0.02}
{"variant": "G19A U28A C31G U34C", "self-cleavage": 0.04}
{"variant": "G19A A24G A26C U28A", "self-cleavage": 1.13}
{"variant": "C18G G21C G27A U43A", "self-cleavage": 0.1}
{"variant": "G19C U32G U34C", "self-cleavage": 0.08}
{"variant": "G19U U20G A26C G35C G44C", "self-cleavage": 0.09}
{"variant": "C18U U20A U43C", "self-cleavage": 0.14}
{"variant": "G19C G35A U43A C45G", "self-cleavage": 0.03}
{"variant": "C18U G22C G36U", "self-cleavage": 0.31}
{"variant": "C18U G19A G44U", "self-cleavage": 0.08}
{"variant": "G19A U20C G35U U38G", "self-cleavage": 0.01}
{"variant": "G19A U32C G35C A41C C46U", "self-cleavage": 0.01}
{"variant": "U20A C37U U38A C45G C46U", "self-cleavage": 0.05}
{"variant": "U20A U38C C45G", "self-cleavage": 0.03}
{"variant": "G19C A25C G44U", "self-cleavage": 0.25}
{"variant": "U20C A26G G44C", "self-cleavage": 0}
{"variant": "G19A C23U G36C", "self-cleavage": 0.17}
{"variant": "G19U A39G C46U", "self-cleavage": 0.04}
{"variant": "C18G U20G U28A G29U", "self-cleavage": 1.24}
{"variant": "U20A G21A G33C G36U", "self-cleavage": 0.03}
{"variant": "C18U G22U C37G", "self-cleavage": 0}
{"variant": "G19U G27C A39C A41U", "self-cleavage": 0.13}
{"variant": "G19U A26C U28G", "self-cleavage": 0.33}
{"variant": "G19U G22U U28A C37G", "self-cleavage": 0.01}
{"variant": "G19C G21A G30C", "self-cleavage": 0.45}
{"variant": "G19U C23A C37A A41G", "self-cleavage": 0.05}
{"variant": "C18U G21U U43A", "self-cleavage": 0.04}
{"variant": "G19A A26U G27C", "self-cleavage": 0.21}
{"variant": "G19U G33A U38A C42G", "self-cleavage": 0.12}
{"variant": "C18G U28C U32A", "self-cleavage": 0.06}
{"variant": "C18G G21A C23A A26C A41U", "self-cleavage": 0.11}
{"variant": "G19U C37U U38G C45A", "self-cleavage": 0.02}
{"variant": "G19U U28C G40A", "self-cleavage": 0.1}
{"variant": "C18G U32G A41C", "self-cleavage": 0.04}
{"variant": "C18G G30A U43A", "self-cleavage": 0.06}
{"variant": "G19A G21C G27A G29U G40U", "self-cleavage": 0.01}
